Experimental data taken from CN111423515A (BETA PHARMA INC, dated 2020).

Legend:
hCD47-his = target: T1, hCD47-his (human, UniProt Q08722 part only); assay: ELISA, hCD47-his coated
T1 construct: Bought protein coated on the ELISA plate; also called Cat#CD7-H5227; not shown: his tag

[1] = target: T2, human CD47 on cells (CHO-K1/hCD47; human red blood cells RBC) (human, UniProt Q08722); assay: flow cytometry, CHO-K1/hCD47 mixed 1:1 with CHO-K1/hCD20-CD47, 10 μg/mL
T2 construct: whole, on cells; also called CHO-K1/human CD47; 红细胞

Chain of hCD47-his (Q08722 19-139 limits assumed): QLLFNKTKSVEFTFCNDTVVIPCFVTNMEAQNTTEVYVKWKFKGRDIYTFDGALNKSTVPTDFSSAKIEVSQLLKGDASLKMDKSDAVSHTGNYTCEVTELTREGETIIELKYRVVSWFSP

B1: 重组蛋白SIRPaD1 (Fc fusion)
chain: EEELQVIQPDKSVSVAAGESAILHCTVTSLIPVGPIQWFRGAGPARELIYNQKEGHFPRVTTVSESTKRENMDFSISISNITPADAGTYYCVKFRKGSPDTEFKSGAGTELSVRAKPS
notes: Control recombinant protein; detected with anti-human IgG second antibodies; the abstract calls it SIRPaD1-Fc; also called SIRPaD1-Fc; not shown: Fc part of the recombinant protein (abstract: SIRPaD1-Fc); construct and its limits not described
hCD47-his
  binding result: binds
[1]
  binding result: binds
